The text below walks through data of ChEMBL document CHEMBL4888484, “Replenishing the malaria drug discovery pipeline: Screening and hit evaluation of the MMV Hit Generation Library 1 (HGL1) against asexual blood stage Plasmodium falciparum ,using a nano luciferase reporter read-out” (2022).

The campaign covered roughly 150,000 compounds. About 540 (0.36%) showed an effect of 50% or more. The list shows a part of the results.

The test system of this test is Plasmodium falciparum. Put plainly: Primary screen in NF54 nanoGlo assay, in single point, at 2uM, 72h; a lower Z score goes with more inhibition. It is filed as functional, Erythrocyte. As to conditions: timepoint 72 hour.
Take `O=C(Nc1ccncc1)c1cnc2ccccc2n1`: the “% Inhibition” value is recorded as -9% and the Z score is on record as 1.04.
In the case of `Cc1ccc(C(=O)NC2(c3cc(F)cc(F)c3)CC2)c(OCCCN)c1`, the “% Inhibition” value is given as -5% and the Z score was found to be 0.91.
As to `CC1CC(C(=O)O)CN(C(=O)Nc2cccc(NC(=O)c3ccccc3)c2)C1` (stereo unspecified), the “% Inhibition” value is reported as -7% and the Z score is 1.26.
For `O=C(CN1CCCCC1)Nc1cc(C2CC2)nn1-c1ccccc1`, the “% Inhibition” value amounted to 1% and the Z score is -0.24.
The matching figures for `CC[C@H]1CCCCN1C(=O)c1cc(-c2ccc(C)s2)nc2ccccc12`: -12% and 1.82.
Taken in the same sequence, the figures for `Cc1c(C(=O)NCC2(Cc3ccc(Br)cc3)CC2)cnn1C` were -11% and 1.15.
Regarding `Cc1cc(-c2cn3cc(C(=O)NCCF)nc3c(=O)n2CC2CC2)c(C)o1`, the “% Inhibition” value turned out to be 6% and the Z score is on record as -0.85.
Taken in the same sequence, the figures for `Cc1ccc2c(c1)C(C)(C)C(=O)N2CC(=O)N1CCN(c2ccccc2)CC1` were -11% and 1.83.
Taken in the same sequence, the figures for `Cc1nc(C)c(C(=O)NCC2CCC(c3nc4ccccc4[nH]3)CC2)s1` (stereo unspecified) were -3% and 0.49.
As for `C=CCN(CC(F)(F)F)C(=O)c1csc(CN)n1`, the “% Inhibition” value is -5% and the Z score is listed as 0.88.
On to `Cn1c(=O)c2c(ncn2[C@H]2CCc3ccccc3NC2=O)n(C)c1=O`, for which the “% Inhibition” value worked out at 29% and the Z score is on record as -3.23.
With `Cc1cccnc1C(C)(C)CNC(=O)C1(c2cccnc2)CCCC1`, the “% Inhibition” value turned out to be 1% and the Z score is recorded as -0.11.
As for `CCn1nc(C)c([C@H](C)NS(=O)(=O)N2CCN(C)CC2)c1C`, the “% Inhibition” value is reported as -9% and the Z score is recorded as 1.23.
As to `O=C1C[C@H]2CC[C@@H](CN1)N2C(=O)Cc1ccccn1`, the “% Inhibition” value is -9% and the Z score was 1.56.
The matching figures for `CCCS(=O)(=O)N1CCC[C@H](C(=O)Nc2ccc(OC)nc2)C1`: -17% and 2.27.
The matching figures for `COc1ccc(COCc2ccc(C(=N)N)cc2)cc1`: -4% and 0.58.
With `CCNc1ncc(C(=O)N2C[C@@H]3CC[C@H]2CN(S(C)(=O)=O)C3)cn1`, the “% Inhibition” value is recorded as -3% and the Z score is 0.51.
Taken in the same sequence, the figures for `COc1ccc(-c2noc(N(C)CC(=O)Nc3ccc(F)c(Cl)c3)n2)cc1` were 0% and 0.02.
Taken in the same sequence, the figures for `CCCCCOCC(=O)Nc1cc(F)ccc1C(N)=O` were -6% and 1.05.
Taken in the same sequence, the figures for `CC(C)[C@@H]1CN(C(=O)COC2CCCC2)c2ccccc2N1C(=O)COC1CCCC1` were -10% and 0.86.
Take `CCN(CC)C(=O)C1(NC(=O)CCc2c(C)noc2C)CCCCC1`: the “% Inhibition” value amounted to 6% and the Z score was -0.86.
Taken in the same sequence, the figures for `O=C(NCCc1c[nH]cn1)[C@H]1CC(=O)N(c2n[nH]c3cc(Br)ccc23)C1` were 2% and -0.24.
Consider `Cc1cc(C)n(CC(=O)N2CCC(n3c(C)nn(C)c3=O)CC2)n1`, for which the “% Inhibition” value is recorded as -4% and the Z score was found to be 0.58.

As a reminder, the % Inhibition is the relative decrease from the control value, in per cent.
